The campaign covered roughly 150,000 compounds. About 540 (0.36%) showed an effect of 50% or more. The list shows a part of the results.

The assay deals with Plasmodium falciparum. As to the kind of experiment: Primary screen in NF54 nanoGlo assay, in single point, at 2uM, 72h; a lower Z score goes with more inhibition. Format: functional, Erythrocyte. Particulars: timepoint 72 hour.
`O=S(=O)(c1cccnc1Nc1cccc(C(F)(F)F)c1)N1CCOCC1`: the “% Inhibition” value is -37% and the Z score amounted to 4.31.

As for `CCn1c(=O)c(-c2ccc(C(=O)N[C@@H](C)c3ccccc3)cc2)nc2cccnc21`, the “% Inhibition” value is reported as -4% and the Z score worked out at 0.62.

As to `CC(C)N(C)Cc1nnnn1CC(=O)N(C)Cc1ccnc2ccccc12`, the “% Inhibition” value is -17% and the Z score is reported as 1.54.

For the molecule `CCN(CC)C(=O)c1ccccc1NC(=O)C1CCN(S(=O)(=O)Cc2ccccc2Cl)CC1`, the “% Inhibition” value is given as -1% and the Z score stood at 0.19.

Turning to `CCc1n[nH]c(=O)c(C(=O)N2CC3CCCCC3C2)c1CC` (centres undefined), the “% Inhibition” value was determined as 1% and the Z score is -0.1.

`CCC(C)NC(=O)C1CCC(c2ccc(F)cc2)N(C(=O)c2ccccc2)C1` (centres undefined): the “% Inhibition” value is reported as -11% and the Z score was 1.47.

Turning to `CN(CCCNC(=O)CCC(=O)N1CCOc2ccc(Cl)cc21)Cc1ccccc1`, the “% Inhibition” value is recorded as -15% and the Z score was determined as 2.17.

Regarding `Cc1cc(NC2C3CC2N(C(=O)OC(C)(C)C)C3)n2ncnc2n1` (centres undefined), the “% Inhibition” value stood at 7% and the Z score is -0.83.

`CC1(C)CCCN(C(=O)c2cccc(Nc3cnccn3)c2)[C@@H]1C#N`: the “% Inhibition” value is recorded as -2% and the Z score stood at 0.28.

Consider `O=C(C(c1ccccc1)c1ccccc1)N1CC(=O)N(C2CC2)C1`, for which the “% Inhibition” value was determined as 0% and the Z score is listed as 0.01.

On to `CC(C)C(=O)Nc1c(-c2ccccn2)nsc1C(=O)NC[C@H]1CCCO1`, for which the “% Inhibition” value is recorded as -13% and the Z score amounted to 1.25.

As for `Cc1ccc(CC(C)(C)Nc2ncnc3c2ncn3C)cc1`, the “% Inhibition” value is listed as -3% and the Z score is given as 0.49.

For `O=C(Nc1ccc(C2OC(=O)N(Cc3cccc(F)c3)C2C(=O)NCCc2ccccn2)cc1)c1ccco1` (centres undefined), the “% Inhibition” value is on record as -19% and the Z score was determined as 2.7.

As for `Cc1nc(C)n(CCC(=O)Nc2ccccn2)n1`, the “% Inhibition” value turned out to be 5% and the Z score is -0.47.

Regarding `COc1ccc(CN[C@@H](C)c2cccc(NS(C)(=O)=O)c2)s1`, the “% Inhibition” value is reported as -8% and the Z score is given as 0.73.

As to `COCCCN1CC2(CCN(c3nc(C)cc(C4CCC4)n3)CC2)CC1=O`, the “% Inhibition” value is recorded as -13% and the Z score was determined as 2.38.

`O=C(O)[C@H]1CCCN1Cc1cc(Cl)ccc1OCc1cccnc1`: the “% Inhibition” value is -5% and the Z score turned out to be 0.58.

In the case of `CC(NC(=O)C1CC1c1ccc(C(C)C)cc1)C(=O)N1CCOCC1` (centres undefined), the “% Inhibition” value turned out to be 5% and the Z score is -0.61.

In the case of `Cc1nnc(CNC2(c3ccc(C(F)(F)F)cc3)CCCC2)s1`, the “% Inhibition” value is listed as -6% and the Z score was 0.96.

Consider `CC(C)=CCC[C@H](C)CN1CCC(C(N)=O)CC1`, for which the “% Inhibition” value is given as 5% and the Z score is recorded as -0.73.

As to `Cc1ccc(CCn2c3c(c4ccccc42)CN(C)CC3)cn1.Cc1ccc(CCn2c3c(c4ccccc42)CN(C)CC3)cn1`, the “% Inhibition” value was found to be 6% and the Z score was -1.12.

For the molecule `CC(=O)NC(c1ccc(Cl)cc1)C1CCCCC1=O` (centres undefined), the “% Inhibition” value is -5% and the Z score worked out at 0.64.

With `O=C(CCC1CCN(Cc2ncon2)CC1)Nc1ccc2c(c1)OCCO2`, the “% Inhibition” value is -6% and the Z score is listed as 1.01.

Regarding `CNC(=O)[C@@H]1CN(S(=O)(=O)c2ccc(Cl)s2)C[C@H]1c1nc(C)no1`, the “% Inhibition” value is -4% and the Z score is given as 0.65.

With `NC(=O)[C@H]1CCN(C(=O)c2cc(-c3ccc(F)cc3)[nH]n2)C1`, the “% Inhibition” value is listed as -11% and the Z score is listed as 1.49.

Turning to `O=C(N/N=C1/Nc2ccccc2C1=O)c1ccc(Cl)cc1`, the “% Inhibition” value worked out at 0% and the Z score amounted to 0.01.

Regarding `C[C@]1(CCc2ccccc2)CCN(C(=O)CCn2cncn2)C1`, the “% Inhibition” value is on record as -1% and the Z score was found to be 0.08.

In the case of `Cc1ccc(NC(=O)Cn2cccc2-c2nc(-c3ccc(Cl)cc3)no2)cc1F`, the “% Inhibition” value is -12% and the Z score was 1.49.

Take `c1ccc(COc2ccccc2OCCNCCN2CCOCC2)cc1`: the “% Inhibition” value was -13% and the Z score is on record as 1.49.

Turning to `CC[C@H]1CCN1C(=O)Cn1ccc2ccccc2c1=O`, the “% Inhibition” value is -9% and the Z score was 1.12.

With `CC1(C)CN(S(=O)(=O)c2ccc3ccccc3c2)CC[S@@+]1[O-]`, the “% Inhibition” value was -12% and the Z score came out at 1.37.

On to `C=CCN(CC1CC1)S(=O)(=O)C(C)(C)C`, for which the “% Inhibition” value is -15% and the Z score is listed as 2.12.

For the molecule `COc1ccc(S(=O)(=O)N2CCOCC2)cc1NC(=O)Cn1cc(C#N)ccc1=O`, the “% Inhibition” value is recorded as -3% and the Z score turned out to be 0.43.

As for `O=C(NCC1(c2ccc(F)cc2Cl)CC1)N1CC(=O)N(C2CC2)C1`, the “% Inhibition” value is -3% and the Z score was 0.6.

Turning to `CCOc1cccnc1N1CCN(S(=O)(=O)C2(C)CC2)CC1`, the “% Inhibition” value is recorded as 0% and the Z score is -0.03.

In the case of `C=CCc1cc(CN2CCC[C@H]2c2nc(C)no2)cc(OC)c1OC(C)C`, the “% Inhibition” value is reported as -2% and the Z score is 0.2.

As for `COCCNC(=O)c1ccc(N[C@@H](C)c2ccccn2)nc1`, the “% Inhibition” value is 12% and the Z score is -1.6.

As to `CCC(=O)N(Cc1ccc(OC)c(OC(C)C)c1)C1CCCC1`, the “% Inhibition” value was -4% and the Z score came out at 0.58.

With `CCc1c(C)sc2c1CCN(CC(=O)Nc1ccc(OC)cc1)[C@@H]2c1ccccc1`, the “% Inhibition” value is -16% and the Z score worked out at 1.53.

As to `Cc1ccc(Cl)cc1NC(=O)Cc1csc(NC(=O)[C@@H]2CCC(=O)N2)n1`, the “% Inhibition” value is -12% and the Z score amounted to 1.43.

As to `N#Cc1cccc(C(=O)N2CCCN(c3nc4ccccc4nc3-c3ccccc3)CC2)c1`, the “% Inhibition” value was -16% and the Z score worked out at 2.16.

In the case of `CN(Cc1[nH]c2ccccc2c1Cl)C[C@H]1CC(=O)N(C(C)(C)C)C1`, the “% Inhibition” value was -1% and the Z score is reported as 0.08.
